Measured values taken from paper PMC6961345 (Antiviral Chemistry & Chemotherapy, 2018).

Test system: influenza A/Brisbane/59/2007 (H1N1) virus
Assay: Time-of-addition experiment in dNHBE cells
Type: cell-based

Row | Compound | dose dependence of reduction of influenza A(H1N1) virus titers
1 | CCC(CC)O[C@@H]1C=C(C(=O)O)C[C@H](N)[C@H]1NC(C)=O [oseltamivir carboxylate] | dose dependent
2 | C[n+]1ccc(C(=O)NCc2ccccc2)cc1 [enisamium, N-methyl-4-benzylcarbamidopyridinium] | dose dependent
